Measured values reported in PubChem BioAssay AID686979 (National Center for Advancing Translational Sciences (NCATS), 2013).
The whole screen tested about 420,000 compounds, of which about 50,000 (12%) were called active. The inconclusive results got no clear call from the source; some entries with a clear call stand among them for comparison. Calls follow the shape of the dose curve; as a rule, active = well fitted inhibition curve with a large enough effect; inconclusive = small, poorly fitted or top-dose-only effect; inactive = flat fitted curve, though single readings scatter. Potencies of inconclusive entries are left out as doubtful fits.

experiment: qHTS for Inhibitors of human tyrosyl-DNA phosphodiesterase 1 (TDP1): qHTS in cells in presence of CPT; details: chicken DT40 Tdp1-/-;hTDP1 cells + 20 nM CPT, ATP luminescence, 48 h; activity change, negative = growth inhibition: at 46.2 µM (top of the series) unless noted; also: nearly all actives have a fitted effect of over 55% in size
Outline: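 Chicken DT40 Tdp1-/- cells complemented with human TDP1, 400 cells/well, exposed to compounds plus 20 nM camptothecin for at least 48 h at 37 C; viability read as ATP content by CellTiter-Glo luminescence.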
% is scaled to controls: 0 for no effect and ±100 for the full control effect; potency is read from the fitted curve at half-maximal effect; tags tell the direction and shape of the fitted curve.

Structure (SMILES) | Potency | activity change, negative = growth inhibition
CCOC(=O)c1ccc(CN(Cc2ccc(Cl)cc2Cl)S(=O)(=O)c2ccc(F)c(C)c2)cc1 | inconclusive [inhibitor, single point] | –
CC[C@@]1(C(=O)OC)N[C@H](CN(C)S(=O)(=O)c2ccc(OC)cc2)[C@@H]2C(=O)N(C)C(=O)[C@@H]21 | – | inactive: -17.5%
Cc1ccc2c(c1)N(C(=O)CCC(=O)N1CCN(c3ccccc3)CC1)CCO2 | inconclusive [inhibitor, single point] | –
COc1ccccc1N1CCN(C(=O)C(C)NC(=O)c2ccco2)CC1 (centres undefined) | – | inactive: 0.673%
O=C(NCc1ccc(N2CCCC2=O)cc1)C1CCC(=O)N(Cc2ccccc2F)C1 (centres undefined) | – | inactive: 1.9%
N#Cc1cc2cc(Cl)ccc2[nH]c1=O | – | inactive: -7.28%
CN(C)c1ccc(/C=C/c2ccncc2)cc1 | inactive | –
N#Cc1ccccc1OCCCN1CCC(Cc2ccccc2)CC1 | inconclusive [inhibitor, single point] | –
CCc1cccc(CC)c1N(COC)C(=O)Cn1cnc2ccccc21 | inconclusive [inhibitor, single point] | –
COc1ccc(N2CCN(C(=O)NC(=O)c3ccc(Cl)cc3)CC2)cc1 | inconclusive [inhibitor, single point] | –
COc1cccc(CNC(=O)c2ccc3c(c2)nc2n3CCOC2)c1OC | – | inactive: 5.63%
O=S(=O)(c1cccc(NC(=S)N2CCN(c3cccc(Cl)c3)CC2)c1)C(F)F | inconclusive [inhibitor, single point] | –
CC(C(=O)Nc1ccccc1Br)N1c2cccc3cccc(c23)S1(=O)=O (centres undefined) | inconclusive [inhibitor, single point] | –
CCOc1ccc(NS(=O)(=O)c2ccc(Cl)c(C(=O)N(C)Cc3cccnc3)c2)cc1 | inconclusive [inhibitor, partial curve, poor fit] | –
CC1CCN(S(=O)(=O)c2ccc3c(ccn3CC(=O)NCc3ccccc3F)c2)CC1 | active: 20.6 µM | –
CCc1cc2c(=O)c(-c3nc(C)cs3)c(CCCC(=O)O)oc2cc1O | inconclusive [inhibitor, single point] | –
CCCOc1ccccc1C(=O)N1CCNC(=O)C1CC(=O)OC(C)C (centres undefined) | – | inactive: 27.7%
O=c1oc2ccccc2c2c1ncn2C1CCCCC1 | inconclusive [inhibitor, single point] | –
Cc1cc(=O)n2nc(N3CCC(C(=O)NCc4cccnc4)CC3)sc2n1 | – | inactive: 4.58%
Cc1ccc(CNC(=S)Nc2ccc(NS(=O)(=O)c3ccc(C)cc3)cc2)cc1 | inconclusive [inhibitor, single point] | –
CC(C)CCCCCCNC(=S)Nc1ccc(S(=O)(=O)N2CCOCC2)cc1 | active: 16.4 µM | –
CCn1cc(C(=O)NCCc2ccc(OC)c(OC)c2)c(=O)c2cc(S(=O)(=O)N3CCOCC3)ccc21 | – | inconclusive: -35.1% [inhibitor]

Structure (SMILES) | Potency | activity change, negative = growth inhibition
O=C(Nc1nnc(C2=COCCO2)o1)c1ccc([N+](=O)[O-])s1 | inconclusive [inhibitor, single point] | –
O=C(/C=C/[C@H]1O[C@@H](n2cnc3c(NC(=O)c4ccccc4)ncnc32)[C@H](O)[C@@H]1O)NCC(c1ccccc1)c1ccccc1 | inconclusive [inhibitor, single point] | –
O=C(O)CC(NC(=O)CCc1ccccc1)c1ccc(Cl)cc1 (centres undefined) | – | inactive: 4.91%
CCOC(=O)[C@]12CCC=C1N(Cc1cccc3ccccc13)C(=O)[C@H](CC(=O)N1CCOCC1)C2 | inconclusive [inhibitor, single point] | –
O=c1[nH][nH]c2c1[C@H](CCc1cccc(Cl)c1)O[C@H](C1CCCC1)C2 | inconclusive [inhibitor, single point] | –
O=C1OCC(c2ccc(Cl)s2)=C1c1ccccc1[N+](=O)[O-] | – | inactive: 0.137%
O=C(Nc1cccc(C(F)(F)F)c1)c1cc(-c2ccc(Cl)cc2)on1 | inconclusive [inhibitor, full curve] | –
COc1ccc(Cn2c(-c3ccc(Br)cc3)c[n+]3ccccc23)cc1 | active: 1.84 µM | –
COC(=O)c1ccc(CN(c2ccccn2)S(=O)(=O)c2ccccc2)cc1 | – | inactive: -21.8%
CCOC(=O)CC1COCCN1Cc1cn[nH]c1-c1cc(OC)c(OC)c(OC)c1 (centres undefined) | inconclusive [inhibitor, single point] | –
CCCN(CC(=O)Nc1ccccc1C)C(=O)CC(NC(=O)c1ccccc1)c1ccccc1 (centres undefined) | inconclusive [inhibitor, single point] | –
O=C(CCN1CCN(c2ccccc2F)CC1)Nc1ccc2c(c1)OCO2 | inconclusive [inhibitor, single point] | –
O=C(COC(=O)c1cccs1)Nc1cccc(S(=O)(=O)N2CCCCC2)c1 | inconclusive [inhibitor, single point] | –
CCc1nc2ccc(C(=O)Nc3ccc(Cl)c(Cl)c3)cn2c1N(C)Cc1ccc(OC)cc1 | active: 16.4 µM | –
COc1cc(/C=C/c2nc3ccccc3s2)cc(OC)c1O | – | inactive: -1.49%
COc1ccc(S(=O)(=O)c2c(SC)nn(CC(=O)Nc3ccc(C)c(Cl)c3)c2N)cc1 | active: 25.9 µM | –
COc1cccc(N2CCN(C(=O)CNC(=O)c3sc4ccccc4c3Cl)CC2)c1 | inconclusive [inhibitor, single point] | –
COCc1nnc(NC(=O)C2CC(=O)N(CCc3ccc(F)cc3)C2)s1 (centres undefined) | inconclusive [inhibitor, single point] | –
COc1cccc(/C=C/C(=O)c2ccc3c(c2)OCO3)c1OC | inconclusive [inhibitor, single point] | –
CCCCNC(=O)C1(C)CCCCN1C(=O)c1ccc2ccccc2n1 (centres undefined) | inconclusive [inhibitor, single point] | –
CCOc1cc(C(=S)N2CCCC2)ccc1OCC(=O)Nc1c(C)cc(C)cc1C | active: 18.4 µM | –
O=C(NCC(c1cccs1)N1CCOCC1)c1cnc(Cl)c(Cl)c1 (centres undefined) | inconclusive [inhibitor, partial curve] | –
